Here are results for 167 variants from the RNAGym collection of RNA variant scans (doi:10.1093/nar/gkz1192).

B1: CPEB3 Ribozyme (parent)
chain: UAACAGGGGGCCACAGCAGAAGCGUUCACGUCGCAGCCCCUGUCAGAUUCUGGUGAAUCUGCGAAUUCUGCUGUAUAUCUC

The source gives no read counts; variants with many changes may rest on few reads.

Variants of B1 are the subject of the data set. The data set is described as follows: self-cleavage, relative activity (ratio to wild type); higher = more cleavage; in vitro, sequencing. In short, it runs like this: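 Relative activity was defined as the cleaved/total read fraction for a variant divided by the same fraction for the unmutated ribozyme. CPEB3 self-cleaving ribozyme libraries were made by rounds of error-prone PCR, barcoded, and transcribed in vitro with T7 RNA polymerase for 5 hours at 37°C, and cleavage ran through transcription plus a 15 min DNase I step before EDTA. Illumina sequencing of template-switched reverse transcripts gave the reads, and DNA sequencing mapped the barcodes. Averages come from three batches, using variants with at least 5 reads.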
In the case of A5G C17U C40A U58C, the self-cleavage worked out at 0.1.
In the case of A5U A13U U26C U41C U43A U60A, the self-cleavage was determined as 0.14.
As for A5G U54A A65U, the self-cleavage stood at 0.
The same measure for A5U A13G G22A C44A: 0.07; for A5U A20G A47G U51A G53U U69C U72G: 0.85.
Turning to A5G A28G G33A C40A U43A U69C U72C, the self-cleavage is 0.07.
With A5G G46A A75U the figure was 0.16; with A5G G8A U25C A35G U54C, 0.69; with A5G A21G U54G A75U, 0.38.
As for A5U A13U A15U A20U A45G U60C, the self-cleavage was found to be 0.29.
As for A5G U26A U69A, the self-cleavage was found to be 0.34.
With A5G G46U G63A, the self-cleavage amounted to 0.34.
With A5G G9A G55U A64G U69G U72A U80C the figure was 0.14.
For the variant A5G G8A A77G, the self-cleavage is 0.1.
Turning to A5G A47G U60C U72A, the self-cleavage turned out to be 0.1.
Regarding A5G U58A U69C, the self-cleavage came to 0.12.
With A5G U48C G53A U54C the figure was 0.32.
The same measure for A5G U51G U78C: 0.35; for A5G C11U A18C U67C: 0.16; for A5G G7C A18G A56G U60G A65G: 0.09.
With A5G U26A A35G U66C A75U, the self-cleavage stood at 0.43.
In the case of A5G C12U A15G U54A C59A G61C, the self-cleavage worked out at 0.03.
As to A5G C40U U54C A64G U74C U78C, the self-cleavage was found to be 0.11.
For the variant A5G U49C U80C, the self-cleavage was found to be 0.56.
In the case of A5G G7C A35U U49C G52U, the self-cleavage was 0.31.
For A5G U26A U54C U58A A64G U67C, the self-cleavage is 0.08.
On to A5U A13U G22U, for which the self-cleavage was found to be 0.18.
Take A5G G9A U51A A56U A65G: the self-cleavage was determined as 0.19.
Consider A5G G9A U72A, for which the self-cleavage was determined as 0.39.
In the case of A5G A45G C50U A64G U72G, the self-cleavage came out at 0.2.
With A5G C17U C23U C40A U41C A57G U66C the figure was 0.16; with A5G A28G G46U, 0.07.
The same measure for A5G C11G U25C C29G A35U U48G U54C: 0.06.
As to A5U A18G U25C A28U U51C U60C U72G, the self-cleavage worked out at 0.05.
Turning to A5G U26A U54C A75G, the self-cleavage is 0.43.
Consider A5G G6U U69C, for which the self-cleavage was found to be 0.08.
Regarding A5U A13G U26C A45U G61A U76A, the self-cleavage came to 0.28.
The same measure for A5G G7C U25C U26C U54A A75U U80C: 0.05; for A5G G8U U25C U58C G61U: 0.07; for A5G A47C C62G U72C U78A: 0.15.
With A5G U25C U67C U69C the figure was 0.31; with A5G A57G A64G U78C, 0.48.
Consider A5G G16U A21G U41A U43C C59A U69C, for which the self-cleavage came out at 0.05.
The same measure for A5G C12A A13G U25C U26G: 0.16; for A5G G7C A21C: 0.08.
In the case of A5G G9A U43C U54C U58C U67C, the self-cleavage was determined as 0.06.
For the variant A5G U31C C50U U76C, the self-cleavage is 0.78.
As to A5G G16C U43A A45G U54C U80C, the self-cleavage amounted to 0.17.
With A5G C12U A21U A47U U58A U66A the figure was 0.81.
Take A5G G7A G10U U49C A64G: the self-cleavage stood at 0.09.
For the variant A5G G8A U74C, the self-cleavage was 0.14.
Turning to A5G A35G U54A, the self-cleavage came to 1.16.
As to A5G U43C U60C A65G, the self-cleavage was determined as 0.41.
Regarding A5G A47G U48C U74A, the self-cleavage worked out at 0.49.
For the variant A5G C17A A28G A75U U78C, the self-cleavage worked out at 0.35.
Regarding A5G G7A G9U A45G U58C U72A, the self-cleavage was determined as 0.05.
For the variant A5G G10A C27U C62A, the self-cleavage was found to be 0.26.
As for A5G U25C U76A, the self-cleavage came out at 0.12.
As for A5G G9A A57G, the self-cleavage is 0.51.
As for A5G A28G G42A U76C U78C, the self-cleavage was 0.08.
With A5G C32G U49C U51C U54C the figure was 0.09; with A5U A20G A77U, 0.86.
Turning to A5G G7A A18G U48C A65G, the self-cleavage was 0.36.
The same measure for A5U A15G A35U A57U: 0.28; for A5G G9A A15U A20G U72C: 0.08.
Turning to A5G U48C U69C A75G, the self-cleavage came to 0.47.
With A5G C12U G19A U54C U58C U66C the figure was 0.1; with A5G A28U A64G U78C, 0.41.
Consider A5G U25C G61A, for which the self-cleavage is 0.65.
The same measure for A5G U25C C37G U41G U51C C62U U69A: 0.06; for A5G G9A C17G: 0.42.
For the variant A5G A45U U60C U69C U80C, the self-cleavage was found to be 0.21.
Consider A5U A13G U58C U72C A77G, for which the self-cleavage was 0.57.
With A5G A45G U51A, the self-cleavage came to 0.46.
With A5G G9A A45G A64G the figure was 0.06.
The same measure for A5U A18G C27U: 0.13; for A5G G10A A20G U41A: 0.29; for A5G G8A U58C U69A: 0.13.
Take A5G C38A A64C: the self-cleavage came to 0.22.
A5G U26A A45U A57G U80C: the self-cleavage worked out at 0.05.
As to A5G U26C A57G C71A, the self-cleavage is 0.25.
Consider A5G U26A C62U, for which the self-cleavage amounted to 0.17.
With A5G G8C A18G A28G U60C U67C, the self-cleavage was 0.13.
The same measure for A5G C39G U54C U69C U72C: 0.03; for A5G U26C A65G: 0.15; for A5G U54C U72C: 0.83.
As to A5U A15U A20G A28U U41C, the self-cleavage came out at 0.46.
In the case of A5U A18G A35G U69C U78C, the self-cleavage amounted to 1.37.
The same measure for A5G C27U U41A A65C: 0.13; for A5U A20U A21G A28G G30A C50A G63C: 0.05; for A5G G7A C11U U25C U49C A65G U69C: 0.05.
For A5G U25C G52A A64G, the self-cleavage amounted to 0.05.
On to A5G G53A U60C A65G, for which the self-cleavage came to 0.15.
A5G G9A U31C U43C: the self-cleavage was 0.28.
With A5G U26C C37U U60A the figure was 0.09.
Regarding A5G C32A A64G U72C, the self-cleavage came out at 0.24.
Turning to A5G G30U A35G A57G U60C U67A C71A, the self-cleavage stood at 0.06.
On to A5G C17U C40A U41C U60A A64G U66C, for which the self-cleavage stood at 0.16.
For A5G A35G U72A, the self-cleavage was 1.1.
Take A5G G9A A15U U69C C71U: the self-cleavage was determined as 0.16.
Regarding A5G U43A A45G A47G U74C, the self-cleavage amounted to 0.28.
The same measure for A5G C37A A56G U72C: 0.24.
With A5G G9A A28G U58A G73U, the self-cleavage came out at 0.07.
Turning to A5G A28G A56G C59A U60C A77G, the self-cleavage was found to be 0.08.
On to A5G U41A U43A U54A U60A, for which the self-cleavage is 0.07.
For the variant A5G C11G C34U C39U U69C U72C U74C, the self-cleavage came out at 0.07.
For A5G U49C A65G, the self-cleavage was found to be 0.05.
Turning to A5G U31C U43A U72C A77G, the self-cleavage came out at 0.2.
As to A5G G7A G8A C14U U48C A65G, the self-cleavage is 0.06.
As for A5G G8A C12G A57G, the self-cleavage stood at 0.07.
As to A5G A28G U41A U49C U54C, the self-cleavage is 0.
With A5U A20G A28G U31G U43C the figure was 0.14; with A5G G9A A18G U25C, 0.27; with A5G A35G G36U C39G U43C U51C U69G, 0.28.
On to A5G U41C G46C A75U U80C, for which the self-cleavage was 0.07.
On to A5G U31A U54A U80C, for which the self-cleavage amounted to 0.35.
For A5G G33C A35G G53U G73A U74A, the self-cleavage is 0.03.
For A5G G8C A15U U26C A65U U69A, the self-cleavage is 0.
With A5G U48C U51A A56G, the self-cleavage amounted to 0.24.
For A5U A20G A57G U58C, the self-cleavage is 0.36.
Regarding A5U A18G U78C, the self-cleavage is 0.75.
On to A5G U51A A64G U74C, for which the self-cleavage was 0.87.
A5G U26C A28G A47G A65U U80C: the self-cleavage came to 0.04.
Take A5G U25C U31C U43A U60A: the self-cleavage was found to be 0.3.
Take A5G A35G U48C: the self-cleavage came to 0.92.
Consider A5G U25C A35G A47G U58C U74A, for which the self-cleavage was determined as 0.29.
With A5G C11U U25C A35U U69C C81U the figure was 0.03; with A5G U67G U69A G73A, 0.31.
As to A5G U80A C81U, the self-cleavage came out at 0.98.
In the case of A5G C11A A20G U26C A57G, the self-cleavage was 0.5.
As to A5G U43C A65G, the self-cleavage turned out to be 0.22.
With A5G G9A U26A, the self-cleavage came out at 0.54.
As to A5G A35G U54C G70A, the self-cleavage was determined as 0.56.
The same measure for A5U A20U A21G: 0.27; for A5G C27A G36U U51G: 0.13; for A5U A13U G22C U48A U58C: 0.19.
The same measure for A5G U43G U76A: 0.63.
With A5G U26C G53C the figure was 0.38; with A5G U41C G63A, 0.39; with A5G U31C A35U A64G U80C, 0.41.
Turning to A5G U25A C50U U54G A75G U80G, the self-cleavage is 0.07.
With A5G A28U G36A the figure was 0.21; with A5G G9U U48C, 0.71; with A5G G10A A18U A21G U48G C79G, 0.05.
For the variant A5G U31A C34U U41C U67A A77U, the self-cleavage amounted to 0.2.
For A5G A28U A47G A57G A77U, the self-cleavage is 0.36.
Take A5G C38A U43C U48C U51C A65G U69C: the self-cleavage is 0.03.
The same measure for A5U A13G A28U U72C: 0.66.
Turning to A5G G9U A21G C34U U54C U78C U80C, the self-cleavage came out at 0.05.
Regarding A5G U26C U51C G63A, the self-cleavage is 0.14.
In the case of A5G U41C U66C A77G, the self-cleavage was 0.11.
On to A5G G10A A45G U48A A57C A65G U80C, for which the self-cleavage stood at 0.06.
Turning to A5G C39U A45U U80C, the self-cleavage is 0.11.
Consider A5G A35G A64G, for which the self-cleavage worked out at 1.09.
Consider A5G U25C A35G A45G A64G, for which the self-cleavage was determined as 0.4.
The same measure for A5G C17U A45G A56G A64G: 0.06; for A5U A15G C23G C32A: 0; for A5G G9A A21G U49C A56G A57G U72C: 0.01.
With A5G U25A A28C U72C the figure was 0.09.
With A5G C14A C29U A56G C62A, the self-cleavage was 0.2.
The same measure for A5U A18U U26C C39A A45G A64U G73A: 0.46.
The same measure for A5G A28G C38A U43C U67A: 0.11.
Take A5G U43C A45C: the self-cleavage came out at 0.52.
Turning to A5G A57G A65G U66C, the self-cleavage was 0.21.
As to A5G U25C A47G A75G, the self-cleavage came out at 0.08.
On to A5G G9U A18G A35G, for which the self-cleavage was determined as 0.32.
Turning to A5G U51A U69C A75U, the self-cleavage was 0.42.
